# According to patent US20230345946A1, “ANTIVIRAL SURFACES COMPRISING POLYOXOMETALATES AND ZINC MOLYBDATE” (FRIDA GROUP APS, priority 2020, published 2023):
# Test system: influenza virus A/H1N1
smiles,measurement,value
"[O]=[Mo](=[O])([O-])[O-].[Zn+2] [Zinc molybdate, zinc molybdate]",reduction of virus titre,1.33 LG
